This is one part of the list. The list includes weakly bound sequences.

The target of this assay is T1, MBP-FoxP3dN (UniProt Q99JB6).
T1 sequence: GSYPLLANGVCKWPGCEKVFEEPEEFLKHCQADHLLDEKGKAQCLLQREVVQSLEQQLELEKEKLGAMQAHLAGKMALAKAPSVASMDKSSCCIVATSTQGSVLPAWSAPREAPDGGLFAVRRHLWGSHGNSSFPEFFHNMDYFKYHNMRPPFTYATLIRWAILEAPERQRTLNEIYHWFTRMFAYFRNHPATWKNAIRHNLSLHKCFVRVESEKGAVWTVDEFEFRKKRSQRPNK
The assay can be described thus: PD-seq (MBP pull-down with sequencing). To be noted: 20 mM Tris-HCl pH 7.5, 100 mM NaCl, 1.5 mM MgCl2, 0.4 uM protein, 0.1 uM dsDNA library, 30 min, room temperature, amylose pull-down; high values mean tight binding; double strand, one strand shown.
For the sequence “GATGATTGTTCTCCCAGCTGATGAATTACACCGCTCGAGTAAACAAATTTTCCTAATCTTTCTGTTCAAGCGCCATCTAC”, the binding signal (RPM ratio (pull-down/input)) came out at 0.442.
As to “GATGATTGTTCTCCCAGCTGATGAATTGGGGAATTCGAGTAAACAAATTTTCCTAATCTTTCTGTTCAAGCGCCATCTAC”, the binding signal (RPM ratio (pull-down/input)) was 0.706.
On to “GATGATTGTTCTCCCAGCTGATGAATTTAACACATCGAGTAAACAAATTTTCCTAATCTTTCTGTTCAAGCGCCATCTAC”, for which the binding signal (RPM ratio (pull-down/input)) was 0.559.
In the case of “GATGATTGTTCTCCCAGCTGATGAATTAAAAGGGTCGAGTAAACAAATTTTCCTAATCTTTCTGTTCAAGCGCCATCTAC”, the binding signal (RPM ratio (pull-down/input)) amounted to 0.194.
As to “GATGATTGTTCTCCCAGCTGATGAATTGCCATCATCGAGTAAACAAATTTTCCTAATCTTTCTGTTCAAGCGCCATCTAC”, the binding signal (RPM ratio (pull-down/input)) was 1.56.
As for “GATGATTGTTCTCCCAGCTGATGAATTTTAGCGCTCGAGTAAACAAATTTTCCTAATCTTTCTGTTCAAGCGCCATCTAC”, the binding signal (RPM ratio (pull-down/input)) stood at 0.408.
Take “GATGATTGTTCTCCCAGCTGATGAATTGAGGGGGTCGAGTAAACAAATTTTCCTAATCTTTCTGTTCAAGCGCCATCTAC”: the binding signal (RPM ratio (pull-down/input)) stood at 0.567.
As for “GATGATTGTTCTCCCAGCTGATGAATTCCAGTATTCGAGTAAACAAATTTTCCTAATCTTTCTGTTCAAGCGCCATCTAC”, the binding signal (RPM ratio (pull-down/input)) is 0.893.
For “GATGATTGTTCTCCCAGCTGATGAATTGATGCCTTCGAGTAAACAAATTTTCCTAATCTTTCTGTTCAAGCGCCATCTAC”, the binding signal (RPM ratio (pull-down/input)) is 3.31.
As to “GATGATTGTTCTCCCAGCTGATGAATTCAAGAAATCGAGTAAACAAATTTTCCTAATCTTTCTGTTCAAGCGCCATCTAC”, the binding signal (RPM ratio (pull-down/input)) came to 0.248.
“GATGATTGTTCTCCCAGCTGATGAATTGACACTATCGAGTAAACAAATTTTCCTAATCTTTCTGTTCAAGCGCCATCTAC”: the binding signal (RPM ratio (pull-down/input)) was 0.798.
Consider “GATGATTGTTCTCCCAGCTGATGAATTCAGGGACTCGAGTAAACAAATTTTCCTAATCTTTCTGTTCAAGCGCCATCTAC”, for which the binding signal (RPM ratio (pull-down/input)) was 0.347.
Regarding “GATGATTGTTCTCCCAGCTGATGAATTACGAAACTCGAGTAAACAAATTTTCCTAATCTTTCTGTTCAAGCGCCATCTAC”, the binding signal (RPM ratio (pull-down/input)) was 0.607.
For “GATGATTGTTCTCCCAGCTGATGAATTAAATTTTTCGAGTAAACAAATTTTCCTAATCTTTCTGTTCAAGCGCCATCTAC”, the binding signal (RPM ratio (pull-down/input)) is 0.508.
Then “GATGATTGTTCTCCCAGCTGATGAATTACTTTATTCGAGTAAACAAATTTTCCTAATCTTTCTGTTCAAGCGCCATCTAC”, with 0.651.
Then “GATGATTGTTCTCCCAGCTGATGAATTAGTCGGGTCGAGTAAACAAATTTTCCTAATCTTTCTGTTCAAGCGCCATCTAC”, with 0.496.
Turning to “GATGATTGTTCTCCCAGCTGATGAATTATGTAGATCGAGTAAACAAATTTTCCTAATCTTTCTGTTCAAGCGCCATCTAC”, the binding signal (RPM ratio (pull-down/input)) stood at 1.23.
On to “GATGATTGTTCTCCCAGCTGATGAATTCGTGCGGTCGAGTAAACAAATTTTCCTAATCTTTCTGTTCAAGCGCCATCTAC”, for which the binding signal (RPM ratio (pull-down/input)) was found to be 0.419.

The record behind these values is article PMC12820563.
